# Out of some 310,000 compounds screened, about 2,200 (0.71%) showed an effect of 50% or more. The effect is printed as a negative number. The list shows a part of the results.
# Target: human ether-à-go-go-related gene (hERG) potassium channel (human, UniProt Q12809)
# Assay: primary screen, population patch clamp on CHO cells stably expressing hERG
# Chain of human ether-à-go-go-related gene (hERG) potassium channel (Q12809 whole entry, looked up): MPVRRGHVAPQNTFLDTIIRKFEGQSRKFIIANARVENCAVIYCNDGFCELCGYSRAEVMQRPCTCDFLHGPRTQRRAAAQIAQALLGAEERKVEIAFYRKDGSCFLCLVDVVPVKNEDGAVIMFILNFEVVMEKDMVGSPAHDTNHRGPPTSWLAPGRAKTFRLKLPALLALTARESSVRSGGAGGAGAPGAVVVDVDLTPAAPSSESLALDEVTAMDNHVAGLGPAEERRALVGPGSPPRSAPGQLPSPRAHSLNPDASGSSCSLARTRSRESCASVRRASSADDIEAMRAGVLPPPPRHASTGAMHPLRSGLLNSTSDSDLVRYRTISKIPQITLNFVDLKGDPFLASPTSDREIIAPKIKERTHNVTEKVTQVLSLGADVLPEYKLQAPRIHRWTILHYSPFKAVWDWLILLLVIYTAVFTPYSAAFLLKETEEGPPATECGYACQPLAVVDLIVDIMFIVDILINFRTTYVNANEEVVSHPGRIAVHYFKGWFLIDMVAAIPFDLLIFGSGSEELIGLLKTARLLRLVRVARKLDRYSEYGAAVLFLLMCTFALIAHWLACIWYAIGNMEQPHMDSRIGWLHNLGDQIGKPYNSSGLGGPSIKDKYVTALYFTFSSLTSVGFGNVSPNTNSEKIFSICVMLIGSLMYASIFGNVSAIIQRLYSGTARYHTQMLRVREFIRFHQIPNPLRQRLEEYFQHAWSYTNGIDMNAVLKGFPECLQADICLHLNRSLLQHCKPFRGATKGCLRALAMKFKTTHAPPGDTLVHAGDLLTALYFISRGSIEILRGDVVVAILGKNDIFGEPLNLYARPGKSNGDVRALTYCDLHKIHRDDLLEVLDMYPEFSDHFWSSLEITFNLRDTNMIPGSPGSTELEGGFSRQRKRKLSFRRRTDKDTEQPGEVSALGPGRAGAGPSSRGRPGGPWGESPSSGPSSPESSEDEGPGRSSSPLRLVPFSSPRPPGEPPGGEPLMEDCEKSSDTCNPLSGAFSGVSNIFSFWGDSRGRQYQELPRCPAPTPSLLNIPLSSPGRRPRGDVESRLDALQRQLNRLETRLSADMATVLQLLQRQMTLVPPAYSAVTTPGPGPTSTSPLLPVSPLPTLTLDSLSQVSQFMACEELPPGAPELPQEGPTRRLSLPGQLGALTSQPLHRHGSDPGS
row,SMILES,"hERG current change (%, negative = inhibition) at 1uM [%]"
1,Cc1c(Cl)cccc1NC(=O)CSc1nnc(C)n1CC1CCCO1 (stereo not shown),13.5
2,CCOC(=O)c1nn(-c2ccc(F)cc2)c2nc(-c3ccccc3)c(C#N)c(=O)n12,39.3
3,Clc1cccc(-c2ccc(/C=N/n3cnnc3)o2)c1Cl,6.11
4,Cc1sc2nc(CSCC(=O)N(CCC#N)c3ccccc3)[nH]c(=O)c2c1C,8.33
5,C#CCOCCOCCOCCNc1nc(N2CCN(C(=O)CCCCCCCCCCNC(=O)Cn3cc(C[C@@H](C)O)nn3)CC2)nc(N2CCN(C(=O)CCCCCCCCCCNC(=O)[C@H](CCCCN)n3cc(CCCC(=O)O)nn3)CC2)n1,10.8
6,CC(=O)Oc1ccc2c(c1)C(=O)c1ccccc1C2=O,12.9
7,Cc1cccc(NC(=O)C(C)C(=O)c2ccccc2)c1 (stereo not shown),13.5
8,OCCn1c(C(F)(F)F)nc2ccccc21,7.56
9,c1ccc(CSc2nnc(-c3ccco3)c(-c3ccco3)n2)cc1,7.67
10,CCO[C@H]1OC(C(=O)Nc2ccccc2)=C[C@@H](c2ccc(C(F)(F)F)cc2)[C@@H]1CCCO,6.01
11,CC(=O)Nc1ccc(S(=O)(=O)Nc2ccccc2C(=O)N2CCCCC2)cc1,14.9
12,S=C(Nc1ccc(Cl)cc1)Nc1cccc2cnccc12,3.31
13,COCCNC(=O)C(c1ccc(O)cc1)N(Cc1ccco1)C(=O)CCC(=O)Nc1nccs1 (stereo not shown),0.253
14,CCOC(=O)c1ccc(NS(=O)(=O)c2ccc3c(c2)CCCN3C(C)=O)cc1,10.2
15,COc1ccc(Cc2nnc(-c3ccc(F)cc3)o2)cc1OC,1.32
16,COc1cccc(N/C=C/c2onc(C)c2[N+](=O)[O-])c1,8.87
17,CN1CCN(C2=Cc3ccccc3Sc3cc(F)c(Cl)cc32)CC1.O=C(O)/C=C\C(=O)O,4.3
18,Cc1cc(S(=O)(=O)NC2CCCCC2)ccc1OCC(=O)N1CCOCC1,13.5
19,O=C(CCN1CCN(C(=O)c2ccccc2)CC1)c1ccc(Br)cc1,0.232
20,Cc1ccc(S(=O)(=O)NC(=O)Nc2nnc(C)s2)cc1,12.7
21,COCCn1c(=S)[nH]c2cc(C(=O)N3CC(C)CC(C)C3)ccc2c1=O (stereo not shown),17.2
22,CC1(c2nnc(-c3ccccc3)o2)CC(c2ccc(Cl)cc2)=NO1 (stereo not shown),1.16

row,SMILES,"hERG current change (%, negative = inhibition) at 1uM [%]"
1,Cc1ccc(CNC(=O)CN(Cc2cccs2)C(=O)C2(C)CC(=O)N=C3C=CC=CN32)cc1 (stereo not shown),14.2
2,O=C1c2cccc3cccc(c23)C(=O)N1c1nncs1,5.54
3,Cc1ccc(O)c(CNn2cnnc2)c1,-0.43
4,Cc1ccc(S(=O)(=O)Oc2ccc(/C=C(/NC(=O)c3ccccc3)C(=O)NCCC(=O)O)cc2)cc1,10.2
5,O=c1oc2ccccc2cc1-c1cn(-c2ccccc2)c(=S)[nH]1,9.58
6,COc1cc(C(c2c(C(=O)O)[nH]c3ccccc23)c2c(C(=O)O)[nH]c3ccccc23)ccc1OCc1ccccc1,14
7,CN(CC(=O)Nc1ccccc1Cl)C(=O)c1ccccc1SCC(=O)N1CCCC1,-0.529
8,Cc1cccc(C)c1NC(=O)C1(N(Cc2ccco2)C(=O)c2ccccn2)CCCC1,15.1
9,CCOC(=O)Cc1csc(NC(=O)CN2CCN(CC)CC2)n1,12.1
10,CC(=O)c1c(C(C)=O)c(C)n(-c2cccc3cccnc23)c1C,9.1
11,Cc1c(C(=O)N2CCN(Cc3ccccc3)CC2)oc2c1C(=O)CCC2,-0.367
12,COC(=O)[C@@H](NCc1cccc(CN([C@H](C(=O)OC)C(C)C)S(C)(=O)=O)c1)C(C)C,6.74
13,CCOC(=O)c1c(NC(=O)CSc2nnc3c(n2)[nH]c2ccc(F)cc23)sc(C(C)=O)c1C,14.2
14,COCc1ccc(C(=O)NC2CC(C)(C)Cc3c2cnn3-c2ccc(OC)cc2)o1 (stereo not shown),5.02
15,O=C(O)C1CCN(C(=O)c2ccc(Cl)cc2)CC1,11.2
16,CC(=O)N(C)c1ccc(NC(=O)C(Sc2ccccc2)c2ccccc2)cc1 (stereo not shown),11.7
17,CCN1/C(=C/C=C/C=C/c2sc3ccccc3[n+]2CC)Sc2ccccc21.[I-],-37.5
18,COc1ccccc1OCc1cc(C(=O)N2CCN(C)C(c3ccccc3)C2)no1 (stereo not shown),-11.4
19,Cc1ccc(N(CC(=O)NCc2ccco2)C(=O)CNS(=O)(=O)c2ccc(F)cc2)c(C)c1,11.2
20,Cn1c2c(c(=O)n3ncnc13)CCCC2,14.7
21,Cc1cc(=O)[nH]c(SCC(=O)N2CCCCCC2)n1,15.7
22,Cc1cccc(CSCC(=O)NCc2ccc(S(N)(=O)=O)cc2)c1,21.9

row,SMILES,"hERG current change (%, negative = inhibition) at 1uM [%]"
1,CC1(C)CC2CC(C)(CN2Cc2cccc([N+](=O)[O-])c2)C1 (stereo not shown),19.1
2,CCCC(=O)NCCCc1nc2ccccc2n1CCC,5
3,COC(=O)C(C)N(C(=O)c1ccc(Cl)cc1)c1c(C)cccc1C (stereo not shown),-1.75
4,COc1ccc(Cc2nnc(Cl)c3ccccc23)cc1OC,7.12
5,COc1cc(NS(=O)(=O)c2cc(C)ccc2OC)c(OC)cc1Cl,7.54
6,COC(=O)CNC(=O)CCCCC(=O)NCC(=O)OC,19.2
7,COc1ccc(C(=O)C2CCCN(C(=O)c3ccnn3C)C2)c(C)c1 (stereo not shown),4.96
8,O=C(NCCCN1CCCCC1)C1(S(=O)(=O)c2ccc(Cl)cc2)CC1,-7.63
9,Cc1ccccc1Cn1c(NC2CCCC2)nc2c1c(=O)[nH]c(=O)n2C,10.3
10,CN(C)C(=O)c1ccc(NC(=O)COC(=O)C2CCN(S(=O)(=O)c3ccc4c(c3)OCCO4)CC2)cc1,11.5
11,O=C(CSCC(=O)N1CCCc2ccccc21)Nc1nc(-c2ccccc2)cs1,11.5
12,O=C(CSc1nc2ccccc2c(=O)[nH]1)Nc1ccc(N2CCOCC2)cc1,6.08
13,Cc1cc(NC(=O)C2CCCN(S(=O)(=O)c3cnc[nH]3)C2)ccc1Br (stereo not shown),13.9
14,O=S(=O)(c1ccc2ccccc2c1)N1CCc2ccccc21,12.2
15,O=[N+]([O-])c1ccc(OCCCOc2cccc3cccnc23)cc1,3.42
16,COc1cccc([C@@H]2CC=C(C(=O)O)[C@H](c3ccc(Cl)cc3)N2S(=O)(=O)c2ccc(C)cc2)c1,13.7
17,O=C(O)CSc1nnc(-c2cccc(S(=O)(=O)N3CCOCC3)c2)n1-c1cccc(Cl)c1,0.918
18,COc1ccc(CN2CCC(=O)N([C@H](CO)c3ccccc3)CC2)cc1,13.3
19,Cc1ccn2c(=O)nc(SCC(=O)Nc3cccc4ccccc34)nc2c1,5.56
20,Cc1ccccc1NS(=O)(=O)c1csc(C(N)=O)c1,20
21,O=C(COc1ccc2ccc(=O)oc2c1)NC1CCCCC1,3.46
22,Cc1ccc(NC(=S)N2CCC(NC(=O)c3ccc(F)cc3)CC2)cc1,8.66

row,SMILES,"hERG current change (%, negative = inhibition) at 1uM [%]"
1,Cc1ccc(C)c(NC(=O)CSc2n[nH]c(-c3ccccn3)n2)c1,12
2,Cc1cccc(C(=O)Nc2nnc(S(=O)(=O)N3CCC(C)CC3)s2)c1,0.95
3,NC(=O)C[C@@H]1NC(=O)[C@H](CCC(=O)O)NC(=O)c2cc([N+](=O)[O-])cc(I)c2OCC[C@@H](C(N)=O)NC1=O,6.69
4,COc1ccc(NC(=O)CCn2nnc(-c3ccc(C)cc3)n2)cc1OC,18.3
5,OCCNc1ccc(Cl)cc1,12.2
6,CC(C)(C)OC(=O)N1CCC[C@H]1C(=O)N/N=C/c1cccc2cccnc12,8.81
7,CC(CCc1ccccc1)NC(=O)c1ccc(Cl)nc1 (stereo not shown),0.944
8,CC1CCCCC1NC(=O)Cn1cc([N+](=O)[O-])ccc1=O (stereo not shown),9.78
9,CCN(CC(=O)NCc1cccs1)S(=O)(=O)c1cc(NC(C)=O)ccc1OC,5.11
10,COc1ccc(C2CC(=O)c3cnn(-c4nc(C)cc(C)n4)c3C2)cc1 (stereo not shown),6.08
11,Cc1ccc(C2/C(=C(/O)c3cnn(-c4ccccc4)c3C)C(=O)C(=O)N2CCN2CCOCC2)o1 (stereo not shown),9.19
12,CC(=O)c1cc(CN2CCN(C3CCCCC3)C(CCO)C2)cs1 (stereo not shown),0.381
13,CCOC(=O)N1CCN(CC(=O)Nc2c(C(=O)OC)[nH]c3cccc(Cl)c23)CC1,14.8
14,C/C(=N\O)C(C)(C)Nc1cccc(F)c1,11.9
15,O=C(c1c(Cl)nc2sccn12)N1CCN(c2cccc(Cl)c2)CC1,2.76
16,Oc1ccccc1-n1nc2ccc3nonc3c2n1,8.13
17,S=C(NCc1ccccn1)Nc1ccc(Br)cc1Cl,25
18,C(=N\Nc1nc(-c2ccccn2)nc2ccccc12)/c1ccccc1,16.9
19,CCNS(=O)(=O)c1ccc(CCC(=O)Nc2cc(Cl)ccc2Oc2ccccc2)cc1,4.27
